Results from the RNAGym collection of RNA variant scans (doi:10.7554/elife.90254).
Read counts are not given, so values of variants with three or more changes are uncertain.

B1: LINE1-mini (parent)
chain: GGCAGAGCUCAACACAGCGUGGCAAAGUGGCUGUGGCUAGACUGCC

Variants of: B1
Assay: self-cleavage, relative activity (ratio to wild type); higher = more cleavage; in vitro, sequencing; the parent is a self-cleaving ribozyme
G1C C8A G35A gave a self-cleavage of 0.03.
Work on G1A G17U U32G C46U yielded a self-cleavage of 0.02.
For G1A C13U A25G G35A A41C C42G, the self-cleavage was 0.04.
For G1C C3A A26U G27A C46U, the self-cleavage was 0.32.
G1A G5C G7U G30A G33A C37A showed a self-cleavage of 0.2.
For G1A C3U C13G G22U A24C G36C C42U U43G, the self-cleavage was 0.48.
G1A A26G G35C showed a self-cleavage of 0.09.
With G1C A26G G29C A39G the self-cleavage was 0.
In the case of G1A G2U A4C C18A A39G, the self-cleavage is reported as 0.01.
For G1C A6G A24G A41C, the self-cleavage was 0.03.
In the case of G1C A6U A12G A16U U28C C31G, the self-cleavage is reported as 0.
In the case of G1C C13A A14G U34A U43A C45U, the self-cleavage is reported as 0.02.
With G1A A11U A14U G21U U43C the self-cleavage was 0.03.
For G1A C18G A24U C31A, the self-cleavage was 0.13.
G1A G17A C31U A39C C42A showed a self-cleavage of 0.02.
G1A U9A A12U A24U G44U gave a self-cleavage of 0.37.
Work on G1A A4G G30C C42U yielded a self-cleavage of 0.04.
In the case of G1C C10A C13U, the self-cleavage is reported as 0.03.
In the case of G1A C3G G22C G30A U34A C42U, the self-cleavage is reported as 0.34.
With G1A C15G G19C U32A G40A the self-cleavage was 0.03.
With G1A C8U A25U U32A the self-cleavage was 0.28.
Variant G1C A14G C18U G21U U28C has a self-cleavage of 0.1.
With G1C A11C C13G G27A U32G U34A G44U the self-cleavage was 0.01.
G1A G21U G40A C42G gave a self-cleavage of 0.08.
G1C A16U G19C showed a self-cleavage of 0.04.
G1A A16U U28A showed a self-cleavage of 0.02.
In the case of G1A C8A U20G C23U G27U, the self-cleavage is reported as 0.26.
With G1A A6U U38A C42A the self-cleavage was 0.11.
With G1A G5A G7A A14U A39U the self-cleavage was 1.18.
Work on G1C C3U G35A yielded a self-cleavage of 0.04.
Work on G1A C8U A12C A25U C46U yielded a self-cleavage of 0.11.
G1A A4U C18U C23G A26U U32C gave a self-cleavage of 0.01.
In the case of G1C A6G G40A A41C, the self-cleavage is reported as 0.07.
For G1A G5C A12G G35C, the self-cleavage was 0.08.
Variant G1A G27A G30U C45U has a self-cleavage of 0.13.
Variant G1A G5C G30A G40A has a self-cleavage of 0.09.
Variant G1C A4C C10U G29C C45U has a self-cleavage of 0.01.
G1A U28G C46A showed a self-cleavage of 1.38.
G1C C3G U20A G29C gave a self-cleavage of 0.07.
G1A C3G C45A gave a self-cleavage of 0.87.
Variant G1A A16C G36U has a self-cleavage of 0.06.
G1A G19C C46U showed a self-cleavage of 2.64.
In the case of G1A C3A A26C U34A U43C C46U, the self-cleavage is reported as 0.43.
For G1A C3G G36U U38G, the self-cleavage was 0.49.
Work on G1A G7C C15U G36U yielded a self-cleavage of 0.72.
Work on G1C C8A C15A C31U yielded a self-cleavage of 0.02.
For G1A C18A C31G, the self-cleavage was 0.04.
G1C C10G G17C A25G showed a self-cleavage of 0.
Variant G1A U9G C10U A16C C23U C31U C42A has a self-cleavage of 0.02.
G1A A24C C31U G35U gave a self-cleavage of 0.05.
For G1C C10G C13U G30U G44A, the self-cleavage was 0.
G1A G21U A25G C31U C45A showed a self-cleavage of 0.17.
G1A G2A A4U C10U A14G gave a self-cleavage of 0.28.
Work on G1A G27A U32C G44C yielded a self-cleavage of 0.03.
With G1C A4U C13U G17A A24G C31A U38G C46G the self-cleavage was 0.01.
With G1C C8G G17U C18G C46A the self-cleavage was 0.04.
In the case of G1A C8G G17A A41C C46A, the self-cleavage is reported as 0.21.
Work on G1A C3G G33C yielded a self-cleavage of 0.17.
In the case of G1A G36A C37U A41G, the self-cleavage is reported as 0.08.
G1A G21A G29A A41G gave a self-cleavage of 0.09.
Work on G1A G21C G36A yielded a self-cleavage of 0.4.
G1A C3A U9G G29C G30A C31A C37A showed a self-cleavage of 0.69.
Work on G1A A16U G19U G40U C42G yielded a self-cleavage of 0.28.
For G1A G19U G33A C37G, the self-cleavage was 0.05.
For G1C A16U G17U C18G U43C, the self-cleavage was 0.03.
For G1C A14C G33A, the self-cleavage was 0.02.
Work on G1A G22A U28G G30U G36A yielded a self-cleavage of 0.19.
G1A C18A A26G gave a self-cleavage of 0.07.
G1A U9G G35A C37U gave a self-cleavage of 0.53.
In the case of G1A A6U U28C, the self-cleavage is reported as 0.51.
Variant G1A G17A C18U G29A U38C has a self-cleavage of 0.14.
Work on G1A C8U G19A yielded a self-cleavage of 0.15.
Work on G1A G2U C31G A39U yielded a self-cleavage of 0.1.
Work on G1C C8G G17U G40U yielded a self-cleavage of 0.02.
Work on G1A U9A G21C A25G G33A U38A yielded a self-cleavage of 0.06.
In the case of G1C A12G C37A, the self-cleavage is reported as 0.08.
With G1A C13A A25G G27C C37U the self-cleavage was 0.01.
With G1C C3A C15U G27A the self-cleavage was 0.61.
Work on G1C C3A A12C A14C G21C yielded a self-cleavage of 0.03.
In the case of G1C A6C U38C, the self-cleavage is reported as 0.01.
G1C C10U G17U U28C showed a self-cleavage of 0.02.
G1A U9G G21C G36U showed a self-cleavage of 0.41.
Variant G1A A14C G22C C42U has a self-cleavage of 0.02.
Work on G1A G22A G30U yielded a self-cleavage of 0.75.
